61 compounds from PubChem BioAssay AID1508642 (National Center for Advancing Translational Sciences (NCATS), 2021) can be followed below.

Hit rate of the full screen: of about 43,000 compounds, about 200 (0.47%) were called active. Another 12% or so got no clear call; they are omitted. The call rests on the fitted dose curve; in most records, active means well fitted cell-killing curve with a large enough effect; inconclusive means small, poorly fitted or top-dose-only effect, or effect the other way; inactive means flat fitted curve, though single readings scatter. The list shows a part of the results.
On the % scale 0 is the no-effect control and ±100 the full control effect.

The assay in a line: Cell viability qHTS assay in S16 Pmp22-F2sN cells. Further: nearly all actives have a fitted effect of over 65% in size. The note with it: S16 Pmp22-F2sN Schwann cells (luciferase reporters placed in the Pmp22 gene) viability, CellTiter-Glo, 24 h; series mostly up to 57.5 µM; activity change, negative = cytotoxicity: at the top concentration. An outline of the steps:
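S16 Schwann cells carrying the Pmp22-F2sN reporter, seeded in 1536-well format, were exposed to library compounds for 24 h at 37C. Viability was read as CellTiter-Glo luminescence after 15 min at room temperature.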
In the case of `Cc1cccc(NC(=O)C(=O)NCC(c2cccnc2)N2CCc3ccccc32)c1C` (stereo unspecified), the “activity change, negative = cytotoxicity” value is inactive: -15.2%.
Regarding `CCOc1ccc(-c2nonc2NC(=O)c2oc3ccc(Cl)cc3c2C)cc1`, the “activity change, negative = cytotoxicity” value is inactive: -3.66%.
In the case of `Cc1ccn2c(=O)c(C(=O)Nc3ccc(F)c(C(F)(F)F)c3)cnc2c1`, the “activity change, negative = cytotoxicity” value is inactive: -2.55%.
As to `O=C(Cn1cc(S(=O)(=O)c2ccc(F)cc2)c(=O)c2cc3c(cc21)OCO3)Nc1ccccc1`, the “activity change, negative = cytotoxicity” value was inactive: 3.46%.
The value for `CC1=C(C(=O)Nc2ccc(C)cc2C)C(CC(C)C)n2nc(SCc3ccccc3C)nc2N1` (stereo unspecified) was inactive: 1.63%; that for `COc1cccc(NC(=O)c2oc3ccccc3c2NC(=O)COc2ccccc2C)c1` was inactive: -0.633%.
As for `COC(=O)c1ccccc1NC(=O)CCCn1nc(C)c2sc3ccccc3c2c1=O`, the “activity change, negative = cytotoxicity” value was inactive: 10.1%.
Turning to `COc1ccc(-c2nnn3c2nc(NCc2ccccc2)c2ccccc23)cc1`, the “activity change, negative = cytotoxicity” value was inactive: 27.5%.
As to `O=c1oc2c(F)cc(F)cc2cc1S(=O)(=O)c1ccc(F)cc1`, the “activity change, negative = cytotoxicity” value is inactive: -3.07%.
`Cc1nc(C)c(CCNS(=O)(=O)c2ccc(C)c(C)c2)s1`: the “activity change, negative = cytotoxicity” value is inactive: 1.11%.
`Cc1ccc(Cc2nc3ccccc3nc2SCC(=O)N2CCCCC2)cc1`: the “activity change, negative = cytotoxicity” value is inactive: -6.64%.
`CCOc1ccc(CN2CCN(S(=O)(=O)c3ccc(Cl)cc3)CC2)cc1`: the “activity change, negative = cytotoxicity” value is inactive: -7.72%.
On to `CC(C)Cc1ccc(S(=O)(=O)Nc2ccc3[nH]c(=O)[nH]c3c2)cc1`, for which the “activity change, negative = cytotoxicity” value was inactive: -17.5%.
To `CCOc1ccc(OCC)c(NC(=O)c2cnc3c(-c4ccccc4)c(C)nn3c2C)c1` belongs inactive: 5.16%; to `O=C(CCC1N=C2c3ccccc3N=C(SCc3ccccc3Cl)N2C1=O)NCc1cccs1` (stereo unspecified), inactive: 0.478%; to `O=C(NCc1ccccc1F)C(=O)NCC(c1cccs1)S(=O)(=O)c1cccs1` (stereo unspecified), inactive: 0.78%.
Regarding `COc1ccccc1OCC(=O)NCC1(N2CCOCC2)CCCCC1`, the “activity change, negative = cytotoxicity” value is inactive: 16.9%.
The value for `O=C(NCc1cccc(Cl)c1)c1ccc(CS(=O)Cc2ccccc2Cl)o1` (stereo unspecified) was inactive: -21%; that for `COC(=O)c1cc2oc(C)cc2n1Cc1cccc(Cl)c1` was inactive: 2.09%; that for `Cc1ccc(-n2c(=O)c3c(c4cc(C)ccc4n3C)n(CC(=O)NCCC3=CCCCC3)c2=O)cc1` was inactive: 4.72%.
In the case of `O=c1c2oc3ccccc3c2n(Cc2cccc(Cl)c2)c(=O)n1Cc1ccc2c(c1)OCO2`, the “activity change, negative = cytotoxicity” value was inactive: 8.48%.
To `CC(=O)c1c(C)oc2c(Cl)cc(NS(=O)(=O)c3cc(C)c(C)cc3C)cc12` belongs inactive: 16.5%.
Take `COCCn1c(SCC(=O)c2ccc(OC)cc2)nc2cc(C(=O)NC3CCCC3)ccc2c1=O`: the “activity change, negative = cytotoxicity” value is inactive: 6.87%.
For `CCCOc1ccc(-c2nonc2NC(=O)COc2ccc(C)cc2)cc1OCCC`, the “activity change, negative = cytotoxicity” value is inactive: -2.06%.
For the compound `CCC(=O)Nc1ccc2nc(SCCOc3cccc(C)c3)sc2c1`, the “activity change, negative = cytotoxicity” value was inactive: 9.58%.
As for `Cc1ccc(S(=O)(=O)c2nnn(CC(=O)Nc3ccccc3C)c2N)cc1C`, the “activity change, negative = cytotoxicity” value was inactive: -0.806%.
Regarding `COc1ccc(NC(=O)Cn2c(=O)n(-c3cccc(C)c3)c(=O)c3c2c2cc(C)ccc2n3C)cc1OC`, the “activity change, negative = cytotoxicity” value was inactive: -2.11%.
Turning to `Cc1ccc2oc(-c3ccc(C)c(NC(=O)c4ccc5c(c4)OCCO5)c3)nc2c1`, the “activity change, negative = cytotoxicity” value is inactive: 15.3%.
As to `COc1ccc(-c2n[nH]c3c2C(c2ccc(Cl)cc2Cl)NC3=O)cc1` (stereo unspecified), the “activity change, negative = cytotoxicity” value was inactive: -26.4%.
On to `CCN(CCCNC(=O)c1ccc(Sc2ccc(C)cc2)c(NC(C)=O)c1)c1cccc(C)c1`, for which the “activity change, negative = cytotoxicity” value was inactive: -23.9%.
Regarding `COc1ccc(-n2c(=O)c3c(c4cc(OC)ccc4n3C)n(CC(=O)NCC3CCCO3)c2=O)cc1` (stereo unspecified), the “activity change, negative = cytotoxicity” value is inactive: 10.2%.
For the compound `COc1cc(Cl)c(NC(=O)c2cc(S(=O)(=O)N3CCOCC3)cn2C)c(OC)c1`, the “activity change, negative = cytotoxicity” value was inactive: -10.4%.
`CCOC(=O)c1ccc(-c2ccc(/C=C(\C#N)C(=O)Nc3c(C)cccc3Cl)o2)cc1`: the “activity change, negative = cytotoxicity” value is inactive: 15.3%.
For `CCc1nn2c(-c3ccco3)ccnc2c1-c1ccc(F)cc1`, the “activity change, negative = cytotoxicity” value is inactive: 13.8%.
Turning to `C#CCSc1nc2sc3c(c2c(=O)n1-c1cccc(OC)c1)CCN(C(C)=O)C3`, the “activity change, negative = cytotoxicity” value is inactive: -0.682%.
Regarding `Cc1ccccc1Nc1c(-c2cccc(O)c2)nc2ccc(Br)cn12`, the “activity change, negative = cytotoxicity” value was inactive: -13%.
For `O=S(=O)(NCc1ccc(F)cc1)c1ccc2[nH]c3c(c2c1)CCCCC3`, the “activity change, negative = cytotoxicity” value was inactive: -0.983%.
Consider `CCOC(=O)c1nc(Nc2ccc(OC)cc2)c2ccccc2n1`, for which the “activity change, negative = cytotoxicity” value was inactive: 17.1%.
For `Cc1ccc(CNC(=O)c2cc(S(=O)(=O)N3CCCC(C)C3)cn2C)cc1` (stereo unspecified), the “activity change, negative = cytotoxicity” value is inactive: -0.524%.
Take `Cc1sc(C2C(C#N)=C(N)N(c3cccc(Cl)c3)C3=C2C(=O)CCC3)cc1CN1CCOCC1` (stereo unspecified): the “activity change, negative = cytotoxicity” value is inactive: -2.88%.
As to `Cc1ccc(-c2nn(-c3cccc([N+](=O)[O-])c3)c3c2cnc2ccc(F)cc23)cc1`, the “activity change, negative = cytotoxicity” value was inactive: 2.7%.
With `Cc1cccc(Nc2nc(Nc3cccc(C)c3)nc(N3CCOCC3)n2)c1`, the “activity change, negative = cytotoxicity” value is inactive: -22.7%.
As for `Cc1cc2c(n1-c1ccc(C(=O)NCC(C)c3ccccc3)cc1)CCCC2` (stereo unspecified), the “activity change, negative = cytotoxicity” value is inactive: -5.06%.
For the compound `CCOc1ccc(CNC(=O)c2ccc3c(c2)sc2nc(-c4ccc(OC)cc4)cn23)cc1`, the “activity change, negative = cytotoxicity” value is inactive: 20%.
Consider `COc1cc(OC)c(NC(=O)CSC2=Nc3ccccc3N=C(c3ccc(F)cc3)C2)cc1Cl`, for which the “activity change, negative = cytotoxicity” value is inactive: 14.5%.
Consider `CCOC(=O)c1ccccc1NC(=O)Cc1c(C(=O)O)c(C)cn1C`, for which the “activity change, negative = cytotoxicity” value was inactive: -6.78%.
For `Cc1cccc(CS(=O)(=O)CC2Nc3ccc(C(=O)NCc4ccccc4)cc3NC2=O)c1` (stereo unspecified), the “activity change, negative = cytotoxicity” value is inactive: 3.32%.
As for `Cc1ccc(-n2ncc(C(=O)N3CCN(c4ccccn4)CC3)c2C2CCN(C(=O)OC(C)(C)C)CC2)cc1C`, the “activity change, negative = cytotoxicity” value is inactive: -0.656%.
Turning to `CCOC(=O)c1ccc(N2C(=O)c3n[nH]c(C)c3C2c2ccc(O)c(OC)c2)cc1` (stereo unspecified), the “activity change, negative = cytotoxicity” value is inactive: -10.1%.
Turning to `COc1ccc(N2CCN(C(=O)Cn3cnc4sc(C)c(S(=O)(=O)N5CCC(C)CC5)c4c3=O)CC2)cc1`, the “activity change, negative = cytotoxicity” value is inactive: -4.27%.
Turning to `COc1ccc(NC(=O)Cn2cnc3c(nc4n3CCCCC4)c2=O)c(OC)c1`, the “activity change, negative = cytotoxicity” value is inactive: 0.813%.
For `COCCCn1c(=N)c(C(=O)NC2CCCCC2)cc2c(=O)n3ccccc3nc21`, the “activity change, negative = cytotoxicity” value was inactive: 1.64%.
To `COc1ccc(C(=O)Nc2onc3c2CCCC3)cc1` belongs inactive: 6.92%; to `Cc1c(CNC2CCCCCC2)c(C(=O)O)c(C)n1Cc1c(F)cccc1Cl`, inactive: 5.29%.
As for `COc1ccc(-c2cn3nc(N4CCCC(C(=O)Nc5ccc(Cl)cc5C)C4)sc3n2)cc1` (stereo unspecified), the “activity change, negative = cytotoxicity” value is inactive: 9.58%.
On to `CC1Cc2ccccc2N1S(=O)(=O)c1nnc(NC(=O)c2ccccc2Br)s1` (stereo unspecified), for which the “activity change, negative = cytotoxicity” value is inactive: 1.06%.
To `CC(C)Oc1ccc(C(=O)Nc2ccc3oc(-c4ccncc4)nc3c2)cc1` belongs inactive: 12%; to `Cc1[nH]c2ccc(F)cc2c1CCNC(=O)c1cc2cc(Cl)ccc2oc1=O`, inactive: 6.84%.
For the compound `O=c1n(Cc2ccc(F)cc2Cl)c2ccccc2c2nc(-c3ccccc3)nn12`, the “activity change, negative = cytotoxicity” value was inactive: -0.146%.
Take `Cn1c(=O)c2c(nc(NCCc3ccccc3)n2Cc2cccc(Br)c2)n(C)c1=O`: the “activity change, negative = cytotoxicity” value was inactive: -2.12%.
As to `Cc1ccc(CCNC(=O)c2nnc(Cc3cccc(F)c3)o2)cc1`, the “activity change, negative = cytotoxicity” value was inactive: -0.301%.
